Test results reported in patent US20230093512A1 (NANJING GENSCRIPT BIOTECH, published 2023).
Where two headings read alike, the source gives them in different places. Values belong to the binder of their own block, whether it stands above or below them.

Tests used:
[1] = molecular target: T1, human PD-L1 (PD-L1 aAPC/CHO-K1 cells) (human, UniProt Q9NZQ7); assay: cell-based or functional assay
[2] = molecular target: TGF-β1; assay: SPR, TGFβ ligand amine-coupled to chip, fusion protein as analyte, 25 °C, HBS-EP
[3] = molecular target: T2, TGF-β2; assay: as above
T2 sequence (P61812 303-414, species assumed, looked up): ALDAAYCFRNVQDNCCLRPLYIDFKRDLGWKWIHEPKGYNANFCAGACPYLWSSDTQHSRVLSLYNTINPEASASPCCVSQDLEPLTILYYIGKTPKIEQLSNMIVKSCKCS

[4] = molecular target: T3, TGF-β3; assay: as above
T3 sequence (P10600 301-412, species assumed, looked up): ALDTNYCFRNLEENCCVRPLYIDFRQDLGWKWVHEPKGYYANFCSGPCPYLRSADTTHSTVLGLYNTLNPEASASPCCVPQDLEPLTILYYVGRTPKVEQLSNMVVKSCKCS

[5] = molecular target: T1, human PD-L1 (PD-L1 aAPC/CHO-K1 cells); assay: cell-based or functional assay; remark: listed apart in the source
T1 sequence (Q9NZQ7 19-290): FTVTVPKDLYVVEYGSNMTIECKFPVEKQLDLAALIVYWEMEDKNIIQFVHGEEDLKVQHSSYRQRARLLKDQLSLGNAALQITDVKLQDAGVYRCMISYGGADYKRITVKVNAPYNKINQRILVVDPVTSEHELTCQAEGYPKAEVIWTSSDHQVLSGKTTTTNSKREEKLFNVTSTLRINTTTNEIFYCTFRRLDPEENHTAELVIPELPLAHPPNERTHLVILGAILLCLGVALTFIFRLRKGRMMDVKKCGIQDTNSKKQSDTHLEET

Chain of TGF-β1 (P01137 279-390): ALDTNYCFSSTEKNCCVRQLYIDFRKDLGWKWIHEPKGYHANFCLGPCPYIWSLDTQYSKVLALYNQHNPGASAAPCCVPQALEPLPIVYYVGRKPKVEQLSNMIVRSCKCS

B1: ADD19-15-03 (other)
heavy: EVQLVQSGAEVKKPGASVKVSCKASGYIFTGYGITWVRQAPGQGLEWMGEIFPRRVQTYYSEKFKGRVTMTTDTSTSTAYMELRSLRSDDTAVYYCARDYDPYFALDYWGQGTTVTVSSASTKGPSVFPLAPSSKSTSGGTAALGCLVKDYFPEPVTVSWNSGALTSGVHTFPAVLQSSGLYSLSSVVTVPSSSLGTQTYICNVNHKPSNTKVDKRV[gap - human IgG1 Fc]
light: DIQMTQSPSSLSASVGDRVTITCRASQDVSTAVDWYQQKPGKAPKLLIYSASYRYTGVPDRFSGSGSGTDFTFTISSLQPEDIATYYCQQHYSIPFTFGQGTKLEIKRTVAAPSVFIFPPSDEQLKSGTASVVCLLNNFYPREAKVQWKVDNALQSGNSQESVTEQDSKDSTYSLSSTLTLSKADYEKHKVYACEVTHQGLSSPVTKSFNRGECGGGGSGGGGSGGGGSGGGGSGIPPHVQKSVNNDMIVTDNNGAVKFPQLCKFCDVRFSTCDNQKSCMSNCSITSICEKPQEVCVAVWRKNDENITLETVCHDPKLPYHDFILEDAASPKCIMKEKKKPGETFFMCSCSSDECNDNIIFSEEYNTSNPD
notes: Anti-PD-L1 IgG1 with TBRII-ECD at the C-terminus of the light chain by G21-linker; also called GSADD19-15-03
EC50, luminescence (RLU) of PD-1 effector cells co-cultured with PD-L1 aAPC/CHO-K1 cells, PD-1/PD-L1 blockade bioassay [1]: 0.474 nM | Kd [2]: 1.3 nM | koff [2]: 0.00042 s⁻¹ | kon [2]: 324000 M⁻¹ s⁻¹ | Kd [3]: 17.2 nM | koff [3]: 0.00411 s⁻¹ | kon [3]: 239000 M⁻¹ s⁻¹ | Kd [4]: 1.31 nM | koff [4]: 0.000385 s⁻¹ | kon [4]: 293000 M⁻¹ s⁻¹

B2: ADD19-15-07 (other)
heavy: EVQLVQSGAEVKKPGASVKVSCKASGYIFTGYGITWVRQAPGQGLEWMGEIFPRRVQTYYSEKFKGRVTMTTDTSTSTAYMELRSLRSDDTAVYYCARDYDPYFALDYWGQGTTVTVSSASTKGPSVFPLAPSSKSTSGGTAALGCLVKDYFPEPVTVSWNSGALTSGVHTFPAVLQSSGLYSLSSVVTVPSSSLGTQTYICNVNHKPSNTKVDKRV[gap - human IgG1 Fc]GGGGSGGGGSGGGGSGGGGSGIPPHVQKSVNNDMIVTDNNGAVKFPQLCKFCDVRFSTCDNQKSCMSNCSITSICEKPQEVCVAVWRKNDENITLETVCHDPKLPYHDFILEDAASPKCIMKEKKKPGETFFMCSCSSDECNDNIIFSEEYNTSNPD
light: B1 light
notes: TBRII-ECD on both heavy and light chain C-termini; also called GSADD19-15-07
Kd [2]: 0.226 nM | koff [2]: 6.77e-05 s⁻¹ | kon [2]: 299000 M⁻¹ s⁻¹ | Kd [3]: 8.14 nM | koff [3]: 0.00228 s⁻¹ | kon [3]: 280000 M⁻¹ s⁻¹ | Kd [4]: 0.542 nM | koff [4]: 0.000168 s⁻¹ | kon [4]: 310000 M⁻¹ s⁻¹

B5: ADD19-15-00 (antibody, human IgG1, kappa)
heavy: B1 heavy
light: DIQMTQSPSSLSASVGDRVTITCRASQDVSTAVDWYQQKPGKAPKLLIYSASYRYTGVPDRFSGSGSGTDFTFTISSLQPEDIATYYCQQHYSIPFTFGQGTKLEIKRTVAAPSVFIFPPSDEQLKSGTASVVCLLNNFYPREAKVQWKVDNALQSGNSQESVTEQDSKDSTYSLSSTLTLSKADYEKHKVYACEVTHQGLSSPVTKSFNRGEC
notes: H1 is H0 with K214R and A297N in the Fc region; also called GSADD19-15-00; modified anti-PD-L1 mAb
EC50, luminescence (RLU) of PD-1 effector cells co-cultured with PD-L1 aAPC/CHO-K1 cells, PD-1/PD-L1 blockade bioassay [1]: 0.48 nM

B9: ADD19-15-01 (other)
heavy: B2 heavy
light: B5 light
notes: Anti-PD-L1 IgG1 with TBRII-ECD at the C-terminus of the heavy chain by G21-linker; also called GSADD19-15-01
EC50, luminescence (RLU) of PD-1 effector cells co-cultured with PD-L1 aAPC/CHO-K1 cells, PD-1/PD-L1 blockade bioassay [1]: 0.716 nM | Kd [2]: 0.962 nM | koff [2]: 0.000325 s⁻¹ | kon [2]: 338000 M⁻¹ s⁻¹ | Kd [3]: 8.55 nM | koff [3]: 0.00313 s⁻¹ | kon [3]: 366000 M⁻¹ s⁻¹ | Kd [4]: 1.01 nM | koff [4]: 0.00031 s⁻¹ | kon [4]: 308000 M⁻¹ s⁻¹

B10: ADD19-15-10 (other)
heavy: EVQLVQSGAEVKKPGASVKVSCKASGYIFTGYGITWVRQAPGQGLEWMGEIFPRRVQTYYSEKFKGRVTMTTDTSTSTAYMELRSLRSDDTAVYYCARDYDPYFALDYWGQGTTVTVSSASTKGPSVFPLAPSSKSTSGGTAALGCLVKDYFPEPVTVSWNSGALTSGVHTFPAVLQSSGLYSLSSVVTVPSSSLGTQTYICNVNHKPSNTKVDKRV[gap - human IgG1 Fc]GGGGSGGGGSGGGGSGGGGSGIPPHVQKSVNNDMIVTDNNGAVKFPQLCKFCDVRFSTCDNQKSCMSNCSITSICEKPQEVCVAVWRKNDENITLETVCHDPKLPYHDFILEDAASPKCIMKEKKKPGETFFMCSCSSDECNDNIIFSEEYNTSNPDGGGGSGGGGSGGGGSQCFCHLCTKDNFTCVTDGLCFVSVTETTDKVIHNSMCIAEIDLIPRDRPFVCAPSSKTGSVTTTYCCNQDHCNKIELPTTVKSSPGLGPVE
light: B5 light
notes: Heavy chain H5 = H2 with TBRI-ECD fused to its C-terminus by G15-linker; also called GSADD19-15-10
Kd [2]: 6.73 nM | koff [2]: 0.00134 s⁻¹ | kon [2]: 200000 M⁻¹ s⁻¹ | Kd [4]: 5.19 nM | koff [4]: 0.00107 s⁻¹ | kon [4]: 206000 M⁻¹ s⁻¹

More lines, now with the values ahead:

EC50, luminescence (RLU) of PD-1 effector cells co-cultured with PD-L1 aAPC/CHO-K1 cells, PD-1/PD-L1 blockade bioassay [1]: 0.724 nM
B3: ADD19-15-L03-E10 (other)
heavy: B1 heavy
light: DIQMTQSPSSLSASVGDRVTITCRASQDVSTAVDWYQQKPGKAPKLLIYSASYRYTGVPDRFSGSGSGTDFTFTISSLQPEDIATYYCQQHYSIPFTFGQGTKLEIKRTVAAPSVFIFPPSDEQLKSGTASVVCLLNNFYPREAKVQWKVDNALQSGNSQESVTEQDSKDSTYSLSSTLTLSKADYEKHKVYACEVTHQGLSSPVTKSFNRGECDKTHTSPPSPIPPHVQKSVNNDMIVTDNNGAVKFPQLCKFCDVRFSTCDNQKSCMSNCSITSICEKPQEVCVAVWRKNDENITLETVCHDPKLPYHDFILEDAASPKCIMKEKKKPGETFFMCSCSSDECNDNIIFSEEYNTSNPD
notes: also called ADD19-15-03-E10

EC50, luminescence (RLU) of PD-1 effector cells co-cultured with PD-L1 aAPC/CHO-K1 cells, PD-1/PD-L1 blockade bioassay [1]: 0.704 nM
B4: ADD19-15-L03-E12 (other)
heavy: B1 heavy
light: DIQMTQSPSSLSASVGDRVTITCRASQDVSTAVDWYQQKPGKAPKLLIYSASYRYTGVPDRFSGSGSGTDFTFTISSLQPEDIATYYCQQHYSIPFTFGQGTKLEIKRTVAAPSVFIFPPSDEQLKSGTASVVCLLNNFYPREAKVQWKVDNALQSGNSQESVTEQDSKDSTYSLSSTLTLSKADYEKHKVYACEVTHQGLSSPVTKSFNRGECESKYGPPSPPSPIPPHVQKSVNNDMIVTDNNGAVKFPQLCKFCDVRFSTCDNQKSCMSNCSITSICEKPQEVCVAVWRKNDENITLETVCHDPKLPYHDFILEDAASPKCIMKEKKKPGETFFMCSCSSDECNDNIIFSEEYNTSNPD
notes: also called ADD19-15-03-E12

EC50, luminescence (RLU) of PD-1 effector cells co-cultured with PD-L1 aAPC/CHO-K1 cells, PD-1/PD-L1 blockade bioassay [1]: 0.626 nM
B6: ADD19-15-L03-E8 (other)
heavy: B1 heavy
light: DIQMTQSPSSLSASVGDRVTITCRASQDVSTAVDWYQQKPGKAPKLLIYSASYRYTGVPDRFSGSGSGTDFTFTISSLQPEDIATYYCQQHYSIPFTFGQGTKLEIKRTVAAPSVFIFPPSDEQLKSGTASVVCLLNNFYPREAKVQWKVDNALQSGNSQESVTEQDSKDSTYSLSSTLTLSKADYEKHKVYACEVTHQGLSSPVTKSFNRGECDKTHTSPPIPPHVQKSVNNDMIVTDNNGAVKFPQLCKFCDVRFSTCDNQKSCMSNCSITSICEKPQEVCVAVWRKNDENITLETVCHDPKLPYHDFILEDAASPKCIMKEKKKPGETFFMCSCSSDECNDNIIFSEEYNTSNPD
notes: also called ADD19-15-03-E8

EC50, luminescence (RLU) of PD-1 effector cells co-cultured with PD-L1 aAPC/CHO-K1 cells, PD-1/PD-L1 blockade bioassay [1]: 0.665 nM
B7: ADD19-15-L03-G2 (other)
heavy: B1 heavy
light: DIQMTQSPSSLSASVGDRVTITCRASQDVSTAVDWYQQKPGKAPKLLIYSASYRYTGVPDRFSGSGSGTDFTFTISSLQPEDIATYYCQQHYSIPFTFGQGTKLEIKRTVAAPSVFIFPPSDEQLKSGTASVVCLLNNFYPREAKVQWKVDNALQSGNSQESVTEQDSKDSTYSLSSTLTLSKADYEKHKVYACEVTHQGLSSPVTKSFNRGECGSIPPHVQKSVNNDMIVTDNNGAVKFPQLCKFCDVRFSTCDNQKSCMSNCSITSICEKPQEVCVAVWRKNDENITLETVCHDPKLPYHDFILEDAASPKCIMKEKKKPGETFFMCSCSSDECNDNIIFSEEYNTSNPD
notes: also called ADD19-15-03-G2

EC50, luminescence (RLU) of PD-1 effector cells co-cultured with PD-L1 aAPC/CHO-K1 cells, PD-1/PD-L1 blockade bioassay [5]: 0.684 nM
B8: ADD19-15-L03-G4 (other)
heavy: B1 heavy
light: DIQMTQSPSSLSASVGDRVTITCRASQDVSTAVDWYQQKPGKAPKLLIYSASYRYTGVPDRFSGSGSGTDFTFTISSLQPEDIATYYCQQHYSIPFTFGQGTKLEIKRTVAAPSVFIFPPSDEQLKSGTASVVCLLNNFYPREAKVQWKVDNALQSGNSQESVTEQDSKDSTYSLSSTLTLSKADYEKHKVYACEVTHQGLSSPVTKSFNRGECGGGSIPPHVQKSVNNDMIVTDNNGAVKFPQLCKFCDVRFSTCDNQKSCMSNCSITSICEKPQEVCVAVWRKNDENITLETVCHDPKLPYHDFILEDAASPKCIMKEKKKPGETFFMCSCSSDECNDNIIFSEEYNTSNPD
notes: also called ADD19-15-03-G4
